According to article PMC4336329 (PLoS ONE, 2015):
Screen size: about 310,000 compounds; about 14,000 (4.5%) showed an effect of 50% or more. The effect is printed as a negative number. The list shows a part of the results.

These molecules were tested against human ether-à-go-go-related gene (hERG) potassium channel (human, UniProt Q12809) (assay: primary screen, population patch clamp on CHO cells stably expressing hERG).
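Also: peak tail current of the secondary pulse compared with the same well before compound.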

Chain of human ether-à-go-go-related gene (hERG) potassium channel (Q12809 whole entry, looked up): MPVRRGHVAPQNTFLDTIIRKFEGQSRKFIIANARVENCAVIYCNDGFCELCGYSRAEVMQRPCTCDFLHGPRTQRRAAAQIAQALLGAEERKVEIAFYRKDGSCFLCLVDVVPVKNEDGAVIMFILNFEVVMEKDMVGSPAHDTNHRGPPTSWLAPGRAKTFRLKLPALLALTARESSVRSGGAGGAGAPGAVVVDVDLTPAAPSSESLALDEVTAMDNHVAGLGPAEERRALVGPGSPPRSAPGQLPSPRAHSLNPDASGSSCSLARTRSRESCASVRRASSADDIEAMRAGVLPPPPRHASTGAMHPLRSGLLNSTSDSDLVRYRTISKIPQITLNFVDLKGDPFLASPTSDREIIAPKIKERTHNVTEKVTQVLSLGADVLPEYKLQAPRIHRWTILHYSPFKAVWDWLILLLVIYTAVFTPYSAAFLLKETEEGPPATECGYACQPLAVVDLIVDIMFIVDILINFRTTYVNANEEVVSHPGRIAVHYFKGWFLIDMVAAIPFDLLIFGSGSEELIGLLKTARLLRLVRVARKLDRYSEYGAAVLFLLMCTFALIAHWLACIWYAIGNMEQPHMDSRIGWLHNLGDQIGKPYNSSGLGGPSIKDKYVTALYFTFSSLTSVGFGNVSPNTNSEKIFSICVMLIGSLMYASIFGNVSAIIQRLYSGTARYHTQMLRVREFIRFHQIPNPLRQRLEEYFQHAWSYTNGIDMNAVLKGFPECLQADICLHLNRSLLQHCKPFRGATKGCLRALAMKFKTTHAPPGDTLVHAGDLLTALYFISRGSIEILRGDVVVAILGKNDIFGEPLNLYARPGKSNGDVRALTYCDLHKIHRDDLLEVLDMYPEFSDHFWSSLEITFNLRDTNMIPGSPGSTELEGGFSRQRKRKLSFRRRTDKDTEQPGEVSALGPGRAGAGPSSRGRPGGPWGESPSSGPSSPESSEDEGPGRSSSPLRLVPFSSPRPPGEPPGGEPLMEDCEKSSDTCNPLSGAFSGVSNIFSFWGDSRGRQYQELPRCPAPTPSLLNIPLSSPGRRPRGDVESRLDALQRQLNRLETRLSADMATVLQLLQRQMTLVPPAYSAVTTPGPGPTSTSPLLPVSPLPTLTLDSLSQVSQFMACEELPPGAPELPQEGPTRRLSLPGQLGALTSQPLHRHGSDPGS

SMILES	hERG current change (%, negative = inhibition) at 10uM
O=C(COc1cccnc1[N+](=O)[O-])NCc1ccc(F)cc1	-18%
COC(=O)c1cc(S(=O)(=O)Nc2nn(C)c3ccccc23)oc1C	14.3%
COc1ccc(C(=O)CC(=O)c2ccccc2O)cc1OC	-2.72%
O=C(N/N=C/C=C\c1ccc([N+](=O)[O-])cc1)c1cccnc1	-4.15%
NS(=O)(=O)c1ccc(Nc2ccc3cc(S(=O)(=O)N4CCCCC4)ccc3n2)cc1	-30.6%
CC/C(=N\NC(=O)c1c(C)nc2ccccn12)c1ccc(Cl)cc1	-18.1%
Nc1c(N(Cc2ccco2)C(=O)c2ccc(Br)cc2)c(=O)[nH]c(=O)n1Cc1ccccc1	8.29%
O=c1[nH]c2ccccc2n1CCC1CCCCC1	-4.37%
CCN1C(=O)C(CC(=O)Nc2ccc(OC)cc2)N(Cc2ccco2)C1=S (centres unmarked)	-14%
CCc1cc(C(=O)N2CCCC(C(=O)c3ccc(Oc4ccccc4)cc3)C2)n(C)n1 (centres unmarked)	-33.1%
CN1C(=O)/C(=C/c2ccc(O)c([N+](=O)[O-])c2)N(C)C1=S	7.77%
Cc1ccc(S(=O)(=O)N(C)C)cc1NC(=S)NNC(=O)C(N)=O	22%
O=C1CCC(=O)N1CCC(c1ccc(F)cc1)c1ccco1 (centres unmarked)	4.27%
O=C1N/C(=N\c2ccccn2)SC1Cc1ccccc1Cl (centres unmarked)	13.9%
Cn1c(SCC2CCCCC2)nnc1-c1ccncc1	-5.78%
CCN(CC(=O)NC1CCCCC1)S(=O)(=O)c1ccc(Cl)cc1	2.03%
Cc1ccccc1C(=O)OCCN1CCOCC1.Cl	8.37%
CC(C)C[C@H](NC(=O)CCCn1nnc2ccccc2c1=O)C(=O)O	4.62%
c1ccc(NC2=NCCN2CC2CCCCC2)cc1	-4.59%
O=C(NCCc1cccc(F)c1)[C@@H]1CSC2c3ccccc3C(=O)N21 (some centres unmarked)	-13.9%
Cc1[nH]n(-c2cccc(Cl)c2)c(=O)c1-c1ccc(Cl)cc1	20%
CCOc1cccc2sc(=NC(=O)CCS(=O)(=O)c3ccccc3)n(CC)c12	6.33%

SMILES	hERG current change (%, negative = inhibition) at 10uM
CCOC(=O)N1CCN(C(=O)c2cc3c(=O)n4ccccc4nc3s2)CC1	-0.653%
C=CCOC(=O)/C(=C\c1cccc2ccccc12)NC(=O)c1ccccc1	-9.44%
CC(C)c1ccc(C2C3=C(COC3=O)Nc3cc4c(cc32)OCO4)cc1 (centres unmarked)	-9.67%
COc1ccc(NS(=O)(=O)c2cc(NC(=O)c3ccncc3)ccc2N2CCOCC2)cc1	4.27%
CCOC(=O)c1cnn2c(N)c(C#N)cnc12	13.9%
Clc1ccc(-c2cc3ccccc3[nH]2)cc1	-10.4%
CCOc1cc(N2CCOCC2)c(OCC)cc1NC(=O)Cc1ccccc1OC	-5.77%
Cc1cc(C(=O)COc2ccccc2C(N)=O)c(C)n1CC1CCCO1 (centres unmarked)	11.8%
CS(=O)(=O)N1N=C(c2ccccc2)CC1c1ccc2nccnc2c1 (centres unmarked)	-0.803%
COc1ccc(C)cc1NC(=O)Nc1ccccc1	2.19%
CCO[C@H]1OC(C(=O)NCc2nc3ccccc3[nH]2)=C[C@@H](c2ccc(Br)cc2)[C@@H]1CCCO	-13.5%
Cc1ccc(-c2nnc(N3CC(C)OC(C)C3)c3ccccc23)cc1 (centres unmarked)	-20.6%
O=C(CN(Cc1ccccc1)C(=O)c1ccc2c(c1)OCCO2)NCc1ccc2c(c1)OCO2	-59%
CCn1ccc2c(OCC(=O)NCCc3ccc(OC)c(OC)c3)cccc2c1=O	4.05%
C[C@H](NC(=O)c1ccc(C(C)(C)C)cc1)C(=O)N1CCC2(CC1)NCCc1[nH]cnc12	21.6%
Cc1nc(N2CCCCC2)c2c(C)c(C(=O)Nc3ccc4c(c3)OCCO4)sc2n1	11.6%
Cc1ccc(NC(=O)C(=S)NCc2ccco2)cc1	7.1%
O=C(Nc1cccc(C2OCCCO2)c1)c1cccs1	2.99%
CN(C[C@H](CC1CCCCC1)N(C[C@H](Cc1ccccc1)N(CCc1ccccc1)N=O)N=O)N=O.[Na+]	10.5%
CCOC(=O)C1=C(CC)Nc2ccccc2N=C1NC(=O)c1cccc(S(=O)(=O)N2CCCC2)c1	-4.34%
CC(NC1CCCCC1)C(O)C12CC3CC(CC(C3)C1)C2.Cl (centres unmarked)	-16.4%
O=C1c2ccccc2NC(c2ccc(F)cc2)N1Cc1ccccc1 (centres unmarked)	-9.65%
